Assay results: article PMC4336329 (PLoS ONE, 2015)
The campaign covered roughly 310,000 compounds. About 14,000 (4.5%) showed an effect of 50% or more. The effect is printed as a negative number. The list shows a part of the results.

The compounds below were run against human ether-à-go-go-related gene (hERG) potassium channel (human, UniProt Q12809) (assay: primary screen, population patch clamp on CHO cells stably expressing hERG).
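Note: peak tail current of the secondary pulse compared with the same well before compound.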

human ether-à-go-go-related gene (hERG) potassium channel, sequence (Q12809 whole entry, looked up): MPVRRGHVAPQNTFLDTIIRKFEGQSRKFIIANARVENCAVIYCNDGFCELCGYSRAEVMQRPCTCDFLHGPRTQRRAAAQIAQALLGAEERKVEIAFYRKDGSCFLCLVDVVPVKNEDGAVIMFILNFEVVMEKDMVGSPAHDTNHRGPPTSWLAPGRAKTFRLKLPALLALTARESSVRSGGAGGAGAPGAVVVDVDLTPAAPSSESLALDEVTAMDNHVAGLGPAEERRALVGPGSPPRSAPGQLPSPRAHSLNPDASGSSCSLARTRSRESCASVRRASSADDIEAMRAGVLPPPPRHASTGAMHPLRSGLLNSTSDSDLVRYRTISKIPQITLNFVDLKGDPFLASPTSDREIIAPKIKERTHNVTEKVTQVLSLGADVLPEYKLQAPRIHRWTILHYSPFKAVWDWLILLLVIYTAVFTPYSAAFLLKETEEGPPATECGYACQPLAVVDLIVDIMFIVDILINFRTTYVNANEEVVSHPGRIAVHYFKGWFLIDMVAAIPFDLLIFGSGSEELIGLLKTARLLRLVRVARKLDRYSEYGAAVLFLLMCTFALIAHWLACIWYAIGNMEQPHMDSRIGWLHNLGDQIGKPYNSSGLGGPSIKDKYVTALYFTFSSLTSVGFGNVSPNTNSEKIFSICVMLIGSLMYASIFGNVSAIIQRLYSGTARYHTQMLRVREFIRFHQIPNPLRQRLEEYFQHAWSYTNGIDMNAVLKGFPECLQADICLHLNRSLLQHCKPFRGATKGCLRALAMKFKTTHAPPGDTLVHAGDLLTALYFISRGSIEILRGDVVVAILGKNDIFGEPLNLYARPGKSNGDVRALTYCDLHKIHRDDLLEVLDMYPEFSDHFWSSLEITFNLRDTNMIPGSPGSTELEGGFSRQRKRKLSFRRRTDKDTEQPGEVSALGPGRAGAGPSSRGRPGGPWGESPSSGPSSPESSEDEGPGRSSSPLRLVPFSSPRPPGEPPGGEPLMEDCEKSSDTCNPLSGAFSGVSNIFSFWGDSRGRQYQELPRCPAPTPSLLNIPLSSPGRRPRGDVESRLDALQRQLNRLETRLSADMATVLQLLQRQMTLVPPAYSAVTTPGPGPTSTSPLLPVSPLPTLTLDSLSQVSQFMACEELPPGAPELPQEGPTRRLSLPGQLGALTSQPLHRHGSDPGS

| SMILES | hERG current change (%, negative = inhibition) at 10uM |
| --- | --- |
| Cl.OCCCCNCc1ccc(OCc2ccc(Cl)cc2Cl)cc1 | -51.6% |
| O=C(Nc1ccccc1)Nc1nnc(COc2ccccc2F)s1 | 1.23% |
| O=C(Nc1ccc(Cl)c(S(=O)(=O)N2CCCCC2)c1)C1=COCCO1 | -39.6% |
| COc1ccccc1N1CCN(C(=O)c2c(C)cc(=O)oc2C)CC1 | 19.1% |
| Cc1cc(C)c(C(=O)CSc2nnc(C)s2)c(C)c1 | 18.2% |
| CC1(C)CC(C(=O)Nc2nccs2)CCO1 (stereo not shown) | 3.2% |
| CSCC(C)N1CCC(n2nccc2NC(=O)CCOc2ccccc2)CC1 (stereo not shown) | -15.7% |
| O=C1NCC(c2ccccc2)C1C(=O)N/N=C/c1ccc(Cl)s1 (stereo not shown) | 13.4% |
| CCOC(=O)C(=O)Nc1nnc(CCc2ccccc2)s1 | 6.37% |
| O=C(O)CP(=O)(c1ccccc1)c1ccccc1 | 11.9% |
| CCOc1ccc(OCC)c(NC(=O)CSc2nnc(-c3cccnc3)o2)c1 | -27.3% |
| COc1ccccc1CNC(=O)CCN1C(=O)COc2ccc(C)cc21 | 9.51% |
| O=C(CN1C(=O)NC2(CCCC2)C1=O)NCC1CCCO1 (stereo not shown) | 9.06% |
| Cc1ccc(S(=O)(=O)Nc2ccc(SC(F)F)cc2)c(C)c1 | 10.3% |
| O=C(c1ccc(F)cc1)N1CCC(C(=O)N2CCN(S(=O)(=O)c3ccccc3Br)CC2)CC1 | -32.6% |
| Cc1cc(C)c(S(C)(=O)=O)c(NN)n1 | 21.2% |
| COC(=O)c1scc(C)c1NC(=O)c1ccc(Cl)cc1 | -43.1% |
| COc1ccc(CCNC(=O)Nc2cccc([N+](=O)[O-])c2)cc1OC | -14.4% |
| COc1cc2c(cc1OC)C(C)N(C(=O)C1=NN(c3cccc(C)c3)C(=O)CC1)CC2 (stereo not shown) | 1.19% |
| O=C(Cn1c(=O)oc2ccc(Cl)cc21)NC1CCCCC1 | 24.9% |
| Cc1ccc(C(=O)Nc2ccc(S(=O)(=O)N3CCOCC3)cc2)cc1C | 13.1% |
| CCOC(=O)C1(CC2CC2)CCN(Cc2cnc(-c3ccc(OC)cc3)nc2)CC1 | -21.9% |
| Cc1cccc(-n2c(SCC(=O)Nc3ncc(Cl)cc3Cl)nc3ccccc32)c1 | 15% |

| SMILES | hERG current change (%, negative = inhibition) at 10uM |
| --- | --- |
| O=C1Nc2cc(Cl)ccc2Nc2cscc21 | -0.0955% |
| CC1=NN(C(=O)c2ccccc2)C(O)(c2ccc(Br)cc2)C1 (stereo not shown) | 17.4% |
| CC(=O)c1cccc(CN2CCCC(CCC(=O)NCc3ccc(F)c(F)c3)C2)c1 (stereo not shown) | -74.7% |
| CCOC(=O)CSc1nc2c(c(=O)n(Cc3ccccc3Cl)c(=O)n2C)n1C | -36.2% |
| CC(C)c1ccc(CNNC(=O)c2ccccc2)cc1 | -0.864% |
| CCOC(=O)N1CCN(Cc2nc(N)nc(Nc3ccc(Oc4ccccc4)cc3)n2)CC1 | -70.7% |
| CCc1nn(CC(=O)NCCC(C)C)c(=O)c2cc3c(OC)cccc3n12 | 10% |
| COc1cccc(S(=O)(=O)Nc2noc3ccccc23)c1 | 17% |
| O=c1[nH]ncn1-c1ccc(Br)cc1 | 12.1% |
| COc1ccc(N2CCN(C(=O)Cc3ccc(Cl)cc3)CC2)cc1 | -37.5% |
| CCOc1ccccc1NC(=O)c1ccc2c(c1)C(=O)N(CC1CCCO1)C2=O (stereo not shown) | 7.1% |
| Cc1ccc(-n2nc(C)cc2N)c(C)c1.Cl | 10.4% |
| Cc1nc(C(=O)NNC(=O)c2ccccc2Cl)c(C(F)(F)F)o1 | 13.3% |
| O=c1c2ccccc2n2cnnc2n1-c1ccccc1 | 10.1% |
| NS(=O)(=O)c1ccc(N/C=C/C(=O)c2ccc(Br)cc2)cc1 | 11.3% |
| Cc1nc(SCC(=O)N2CCc3ccccc32)n[nH]1 | 11% |
| CCCCOC(=O)Nc1ccccc1C(=O)OC | 0.924% |
| COc1ccc(-c2cc(=O)oc3cc(O)ccc23)cc1 | 16.1% |
| CC(C)Cc1ccc(-c2cc(=O)[nH][nH]2)cc1 | 2.57% |
| COc1ccc(CNC(=O)CSCc2cccc(Cl)c2)cc1 | -16.4% |
| COc1cc(NC(=O)CCNS(=O)(=O)c2ccc3c(c2)CCC(=O)N3)cc(OC)c1 | 14.6% |
| COC(=O)NNC(=O)COc1ccc(Cl)cc1 | -10.3% |
| Cc1nn(C)c(C)c1Sc1ccccc1N | 13.5% |

| SMILES | hERG current change (%, negative = inhibition) at 10uM |
| --- | --- |
| COc1ccc(C(=O)CSc2n[nH]c(=O)[nH]c2=O)cc1 | 14.9% |
| O=C(Cc1ccc(Br)cc1)NNC(=O)Nc1ccc(Cl)cc1 | 16.4% |
| O=C(NNC(=O)c1ccc2ccccc2c1O)c1cccs1 | 11.3% |
| COc1ccc(CC2(CO)CCN(Cc3cnn(-c4ccccc4OC)c3)CC2)cc1 | -64.8% |
| COc1cccc(-n2nc(C(C)=O)c(=O)[nH]c2=O)c1 | 3.8% |
| CN(CC(=O)Nc1ccc(Cl)c(C(F)(F)F)c1)C(=O)C1CC(=O)N(Cc2ccco2)C1 (stereo not shown) | -20.1% |
| O=C(NCc1ccccc1)c1ccc(S(=O)(=O)N2CCCC2)cc1 | -6.97% |
| CC(=O)Nc1nonc1-c1nc2ccccc2n1CCC#N | 4.73% |
| COc1ccc2o/c(=N\O)c(C(=O)Nc3ccccc3OC)cc2c1 | 21.1% |
| CCOC(=O)N1CCC(N2CCCC(C(=O)c3ccc4cc(OC)ccc4c3)C2)CC1 (stereo not shown) | -74.3% |
| Nc1nnn(CC(=O)N/N=C/c2ccncc2)n1 | 1.88% |
| CC(=O)NC(Cc1ccccc1)Cc1ccccc1 | 20.7% |
| Cc1ccc(C(=O)c2nc3c(n2O)CCCC3)cc1 | -0.728% |
| Cc1ccccc1NC(=O)COC(=O)c1cc[n+]([O-])cc1 | -12.2% |
| CC1CCN(CC(=O)N2CCc3ccccc32)CC1 | 8.25% |
| Cc1cccc(-n2c(O)c(C=Nc3ccccc3-c3n[nH]c(=S)[nH]c3=O)c3ccccc3c2=O)n1 | -25.2% |
| O=S(=O)(c1ccc(Cl)cc1)N1CCCCC1c1cccnc1 (stereo not shown) | -22.9% |
| CCOC(=O)c1c(NC(=O)CSc2nnc(CNc3ccc(F)cc3)o2)sc(C(C)=O)c1C | 4.69% |
| Cc1ccc(NC(=O)/C=C/c2ccc(Cl)cc2)nc1 | 17.9% |
| CCn1c(=O)c2cc(C(=O)NC(C)C)sc2c2ccccc21 | 1.39% |
| COc1ccc(-c2csc(NCCc3nc4cc(Cl)c(Cl)cc4n3CCCO)n2)cc1 | 0.123% |
| COc1cccc(NC(=O)CS(=O)(=O)Cc2nc(-c3ccc(C)cc3)oc2C)c1 | 16.7% |
| COc1ccc(C(=O)NCCc2ccc(Cl)cc2)cc1S(=O)(=O)N1CCCCC1C (stereo not shown) | -52.3% |

| SMILES | hERG current change (%, negative = inhibition) at 10uM |
| --- | --- |
| Cc1cc(NC(=O)COc2nnc(-c3ccccc3)c3ccccc23)no1 | -14.7% |
| COc1ccc(C(=O)CSc2nnc(CNc3ccc(C)cc3C)n2Cc2ccco2)cc1 | 6.88% |
| CC(C)c1c(O)nc(SCCC(=O)O)[nH]c1=O | 2.49% |
| Cc1cc(/C(N)=N/OC(=O)c2ccccc2Cl)no1 | 13.7% |
| CC(=O)Nc1ccc(NC(=O)C(C)OC(=O)/C=C/c2cnc3ccccc3n2)cc1 (stereo not shown) | 4.73% |
| O=C(c1ccco1)N1CCN(C2CC(=O)N(c3ccc4c(c3)OCO4)C2=O)CC1 (stereo not shown) | -16.8% |
| O=C1C2C3c4ccccc4C(c4ccccc43)C2C(=O)N1c1cccc2cccnc12 (stereo not shown) | 14.5% |
| COCCN(C(=O)C1=COCCO1)c1c(N)n(CC(C)C)c(=O)[nH]c1=O | 0.285% |
| CC1=C(C(=O)N2CCOCC2)C(c2ccsc2)C2=C(CCCC2=O)N1 (stereo not shown) | 1.43% |
| COc1ccc(CCN(C)C(=O)CSc2nnc(C3CC3)n2N)cc1OC | -22.5% |
| O=S(=O)(Nc1nc2ccccc2nc1-[n+]1cccc(N=C([O-])c2ccccc2Cl)c1)c1ccccc1 | 1.73% |
| Cc1[nH]n2c(=O)cc(-c3ccc([N+](=O)[O-])cc3)nc2c1-c1ccccc1 | -3.21% |
| Cc1noc(C)c1COC(=O)C(c1ccccc1)c1ccccc1 | 6.08% |
| Cc1[nH]n(-c2ccc([N+](=O)[O-])cc2)c(=O)c1C=NCC1CCCO1 (stereo not shown) | 0.91% |
| CC(C)C(c1nnnn1C(C)(C)C)N1CCN(Cc2cccnc2)CC1.Cl (stereo not shown) | 7.59% |
| Cc1ccc(OCc2ccc(C(=O)NNC(=S)NCC3CCCO3)o2)c([N+](=O)[O-])c1 (stereo not shown) | -17.1% |
| Cc1ccc(/C=C/S(=O)(=O)N2CCC(C(=O)O)CC2)cc1 | 16.1% |
| COCCn1c(=S)[nH]c2cc(C(=O)N3CCN(c4ccc(F)cc4)CC3)ccc2c1=O | -18.8% |
| CCN1CCN(c2c(Cl)cccc2NC(=O)c2ccco2)CC1 | -73.4% |
| COc1ccc2nc(SCC(=O)Nc3ccc(S(=O)(=O)Nc4onc(C)c4C)cc3)[nH]c2c1 | -0.044% |
| O=C1/C(=C/c2cccs2)N=C(c2cccs2)N1Nc1ccccc1 | -6.58% |
| CCNC(=O)COC(=O)/C=C/c1cccc([N+](=O)[O-])c1 | 1.68% |
